Screen size: about 130,000 compounds; about 1,900 (1.5%) were called active. Inconclusive results, whose numbers are uncertain, are shown with a selection of clear calls. The call rests on the fitted dose curve; in most records, active means well fitted cell-killing curve with a large enough effect; inconclusive means small, poorly fitted or top-dose-only effect; inactive means no such curve, though single readings can be large or run the other way. Potencies beside an inconclusive call are fits to weak or partial responses and may not hold up.
Assay: qHTS Screen for Compounds that Selectively Target Cancer Cells with p53 Mutations: Cytotoxicity of p53ts Cells at the Nonpermissive Temperature; further: nearly all actives have a fitted effect of over 55% in size
Settings: H1299-p53A138V viability at 39C, ATP luminescence, 24 h; activity change, negative = cell killing: at 46.1 µM (top of the series)
On the % scale 0 is the no-effect control and ±100 the full control effect; potency means the concentration at half of the fitted maximal effect; tags describe the fitted curve by direction and shape.

Row | SMILES | Potency | activity change, negative = cell killing
1 | COCCn1c(SCC(=O)Nc2ccc(C(F)(F)F)cc2)nc2c([nH]c3ccccc32)c1=O | inconclusive: 10 µM [cytotoxic, partial curve, poor fit] | 
2 | O=c1cc[nH]c(=S)[nH]1 | inconclusive: 25.1 µM [cytotoxic, partial curve] | 
3 | Cc1ccc(C)c(N2CCN(CCCNC(=O)c3nnc(Cc4ccc(F)cc4Cl)o3)CC2)c1 | inconclusive: 31.6 µM [cytotoxic, single point] | 
4 | COc1ccc(C/C(O)=C(\C#N)c2nc3ccccc3s2)cc1 | active: 12.6 µM | 
5 | CCCCc1ccc(NC(=O)c2ccc3c(c2)CCN3S(=O)(=O)c2ccccc2)cc1 | inconclusive: 0.005 µM [cytotoxic, full curve, poor fit] | 
6 | CC(=O)N1CCCc2cc(S(=O)(=O)N3CCCC(C(=O)Nc4cccc(Cl)c4C)C3)ccc21 (stereo not given) | inconclusive: 15.8 µM [cytotoxic, partial curve] | 
7 | O=C(CC1SC(=Nc2ccccc2)N(Cc2ccccn2)C1=O)Nc1cccc(Cl)c1 (stereo not given) | inconclusive: 12.6 µM [cytotoxic, single point] | 
8 | CCCN(CCC)C(=O)c1cc2c(=O)n3cccc(C)c3nc2n1C | inconclusive: 0.316 µM [cytotoxic, partial curve, poor fit] | 
9 | COc1ccc(Cl)cc1NC(=O)NCC1CCN(Cc2ccccc2F)CC1 | inconclusive: 12.6 µM [cytotoxic, single point] | 
10 | Cc1ccc(NC(=O)CN2C(=O)C3(SCC(=O)N3c3ccc(F)c(F)c3)c3ccccc32)c(C)c1 (stereo not given) |  | inactive: -1.47%
11 | CN1/C(=N\O)c2cccc3cccc1c23 |  | inactive: 0.168%
12 | CCOc1ccc(-n2cc(C(=O)NCc3ccco3)c3cc(OC)c(OC)cc3c2=O)cc1 | inconclusive: 20 µM [cytotoxic, partial curve, poor fit] | 
13 | Cc1cccc(N2CCN(c3nc4ccc(C)cc4n4cnnc34)CC2C)c1 (stereo not given) | inconclusive: 12.6 µM [cytotoxic, partial curve] | 
14 | O=C(C1CCN(S(=O)(=O)c2cccc3cccnc23)CC1)N1CCN(c2ccc(Cl)cc2)CC1 |  | inactive: -10.6%
15 | COc1cccc(CNC(=O)CCc2c(C)c3cc4c(C)coc4c(C)c3oc2=O)c1 |  | inactive: -16%
16 | Cc1ccc(-n2ncc3c(N4CCN(C)CC4)ncnc32)cc1C | inconclusive: 20 µM [cytotoxic, partial curve] | 
17 | CCN(CC)C(=O)CN(c1ccc(F)c(Cl)c1)S(C)(=O)=O |  | inactive: 0.855%
18 | Cc1ccc(C)c(Cn2c(=O)cc(C)c3c(C)nn(C)c32)c1 | inconclusive: 0.01 µM [cytotoxic, full curve, poor fit] | 
19 | Cc1cccc(C(=O)Nc2ccc(C(=O)OCc3cc(=O)n4nc(CC(C)C)sc4n3)cc2)c1 |  | inactive: 4.18%
20 | CN(O)/C=c1/ccc2c(n1)C(=O)C=CC=2 | inconclusive: 31.6 µM [cytotoxic, single point] | 
21 | CC(C)=NOC[C@@H](O)[C@@H]1O[C@@H]2OC(C)(C)O[C@@H]2[C@H]1O |  | inactive: 2.34% [at 9.22 µM]
22 | COC(=O)[C@@H]1[C@@H](O)[C@]2(O)c3ccccc3O[C@]2(c2ccccc2)[C@H]1c1ccccc1 |  | inactive: 12.7% [at 9.22 µM]
23 | CCc1ccc(C2=NN(CCC(=O)NCCc3ccc(Cl)cc3)C(=O)CC2)cc1 | inconclusive: 31.6 µM [cytotoxic, single point] | 
24 | Cc1ccc(NC(=O)Cn2c(=O)ccc3cc(S(=O)(=O)N4CCC(C)CC4)ccc32)cc1C | inconclusive: 2.82 µM [cytotoxic, full curve] | 

Row | SMILES | Potency | activity change, negative = cell killing
25 | O=C(CSc1nc2ccccc2o1)Nc1nc2ccccc2s1 |  | inactive: -4.17%
26 | O=C(COc1ccc(Cl)cc1)NCCc1csc(-c2cccc(F)c2)n1 | inconclusive: 0.0398 µM [cytotoxic, full curve] | 
27 | CCOc1ccc(NC(=O)c2oc3ccccc3c2NC(=O)Cc2cccc(C)c2)cc1 | inconclusive: 31.6 µM [cytotoxic, single point] | 
28 | ON=C1/C(=N\O)CC2(C/C1=N/O)OCCO2 | inconclusive: 12.6 µM [cytotoxic, single point] | 
29 | CC(=O)Oc1c2c(c3c(c1CC=C(C)C)O[C@@]14C(=CC5CC1C(C)(C)OC4(C/C=C(\C)C(=O)O)C5=O)C3=O)OC(C)(CCC=C(C)C)C=C2 (stereo not given in full) | inconclusive: 3.16 µM [cytotoxic, single point] | 
30 | Cc1ccc(NC(=O)c2nc(-c3ccncc3)no2)c(Cl)c1 | inconclusive: 20 µM [cytotoxic, partial curve] | 
31 | Cc1cc(C(=O)Cn2nnc3ccccc3c2=O)c(C)n1Cc1cccs1 | active: 12.6 µM | 
32 | CCC(=O)N1CCc2cc(S(=O)(=O)NC(CC(C)C)C(=O)NCc3ccc(C)cc3)ccc21 (stereo not given) | inconclusive: 25.1 µM [cytotoxic, single point] | 
33 | Cc1ccc(O)c(-c2n[nH]c3c2C(c2ccccc2F)N(Cc2ccco2)C3=O)c1 (stereo not given) | inconclusive: 12.6 µM [cytotoxic, partial curve] | 
34 | Cc1ccc(-c2nc3ccccn3c2NC(=O)c2ccco2)cc1 | inconclusive: 3.16 µM [cytotoxic, single point] | 
35 | Cc1ccccc1NC(=O)Nc1cccs1 | inactive | 
36 | O=c1cc(-c2cccc(O)c2)oc2cc(O)ccc12 |  | inactive: -22.4%
37 | COc1ccc(NC(=O)c2c(NC(=O)c3cccc(C)c3)sc3c2CCCC3)cc1 | inconclusive: 12.6 µM [cytotoxic, single point] | 
38 | CN(C)c1ccc(-c2ccc3ncnc(-n4ccnc4)c3c2)cc1 | inconclusive: 31.6 µM [cytotoxic, single point] | 
39 | COc1ccc(Cn2c(CO)cnc2SCC(=O)NCc2ccco2)cc1 |  | inactive: 2.96%
40 | COc1ccccc1OCC(=O)Nn1c(=S)[nH]c2ncccc2c1=O |  | inactive: -0.466%
41 | Cc1ccc(CSc2nc3c(c(=O)[nH]2)C(c2cccc(F)c2F)CC(=O)N3)cc1 (stereo not given) |  | inactive: -9.66%
42 | Nc1cccc(-c2nc3ccc(N)cc3s2)c1 | active: 3.16 µM | 
43 | CC(=O)N1CCc2cc(Br)cc(S(=O)(=O)CCC(=O)NCCc3ccc(Cl)cc3)c21 |  | inactive: -2.18%
44 | CN1C(=O)c2ccccc2Sc2ccc(NC(=O)c3ccc(C#N)cc3)cc21 | inconclusive: 10 µM [cytotoxic, partial curve, poor fit] | 
45 | Cc1nn(C(C)(C)C)c(OC(=O)c2c(F)cccc2F)c1Sc1ccccc1 | inconclusive: 15.8 µM [cytotoxic, single point] | 
46 | CCOc1ccc(Nc2c3c(nc4nncn24)CCC3)cc1 | inconclusive: 10 µM [cytotoxic, partial curve] | 
47 | Cc1c(CC(=O)NCc2ccccc2Cl)c(=O)oc2cc(O)ccc12 | inconclusive: 10 µM [cytotoxic, partial curve] | 
48 | COc1ccc(CCNC(=O)CCn2c(=O)c3ccccc3n(Cc3ccccc3C)c2=O)cc1OC | inconclusive: 31.6 µM [cytotoxic, single point] | 

Row | SMILES | Potency | activity change, negative = cell killing
49 | Nc1nc(-c2ccc3c(c2)CCCC3)cs1 | active: 12.6 µM | 
50 | CC(C)Oc1ccc(CNS(=O)(=O)c2ccc(-c3cc(C(F)(F)F)on3)s2)cc1 |  | inactive: 2.1%
51 | Cc1ccc(CNC(=O)C2CCCN(Cc3nc(-c4cccc(C)c4)oc3C)C2)cc1 (stereo not given) | inconclusive: 25.1 µM [cytotoxic, single point] | 
52 | CC1=C(C(=O)OC2CCCCCC2)C(c2ccc(Cl)cc2)CC(=O)N1 (stereo not given) | inconclusive: 31.6 µM [cytotoxic, single point] | 
53 | Cc1cc(C)c(NC(=O)Cc2ccc(-n3c(C)nc4cccnc43)cc2)c(C)c1 |  | inactive: 0.923%
54 | CCc1c(C)nc2nc(-c3ccccc3)nn2c1NCc1ccc(C)cc1 | inconclusive: 31.6 µM [cytotoxic, single point] | 
55 | CN(C)c1ccc(/C=N/n2ncc3ccccc32)cc1 | active: 15.8 µM | 
56 | Cc1noc(C)c1COC(=O)c1ccc(-c2nc3ccccc3s2)s1 |  | inactive: -24.8%
57 | Cc1oc(-c2ccccc2Cl)nc1CSc1nncn2c1cc1occc12 | inconclusive: 25.1 µM [cytotoxic, single point] | 
58 | COc1ccc(-n2c(=O)c(-c3ccc(Cl)cc3)nc3cnc(N4CCNCC4)nc32)cc1 | inconclusive: 15.8 µM [cytotoxic, single point] | 
59 | O=C(Nc1ccc(-c2cn3ccsc3n2)cc1)C1CC1 | active: 5.01 µM | 
60 | CC1CN(CCC(=O)Nc2ccc3c(c2)CCC3)CC(C)O1 (stereo not given) | inconclusive: 31.6 µM [cytotoxic, single point] | 
61 | CCOC(=O)c1c(C)[nH]c(C(=O)CSc2ccccc2)c1C | inconclusive: 12.6 µM [cytotoxic, partial curve] | 
62 | CC(=O)Nc1cccc(-c2nnc(SCC(=O)c3cc([N+](=O)[O-])ccc3Cl)o2)c1 | active: 12.6 µM | 
63 | COc1cccc(N2CCN(C(=O)c3ccc4nc(N5CCC(C)CC5)sc4c3)CC2)c1 | inconclusive: 20 µM [cytotoxic, single point] | 
64 | Cc1ccn2c(Nc3ccccc3)c(-c3c[nH]c4ccccc34)nc2c1 | active: 15.8 µM | 
65 | Cc1ccc(-n2c(N)c(C(=O)N3CCN(C)CC3)sc2=S)cc1 |  | inactive: 0.617%
66 | CC1=C(/C=C\C(=O)O)C(C)(C)CCC1 |  | inactive: 8.03% [at 9.22 µM]
67 | COc1ccccc1Nc1nn2c(=O)c3ccc(C(=O)NCCc4ccccc4)cc3nc2s1 | active: 3.16 µM | 
68 | CCC(C(=O)NCCc1ccc(OC)c(OC)c1OC)n1nc(C)c2sc3ccccc3c2c1=O (stereo not given) |  | inactive: -28.8%
69 | Cc1ccc(C)c(N2CCN(CCCNC(=O)c3cnn(-c4cccc(Cl)c4)c3C3CCN(C(=O)OC(C)(C)C)CC3)CC2)c1 | inconclusive: 20 µM [cytotoxic, single point] | 
70 | COc1ccccc1NC(=O)c1cc2c(-c3ccccc3)nn(-c3ccccc3)c2s1 | inconclusive: 15.8 µM [cytotoxic, single point] | 
